Measurements taken from paper PMC7865252, “Dual and Opposite Costimulatory Targeting with a Novel Human Fusion Recombinant Protein Effectively Prevents Renal Warm Ischemia Reperfusion Injury and Allograft Rejection in Murine Models” (International Journal of Molecular Sciences, 2021).
Values joined by “and” are separate entries in the source; they are usually repeats but may differ in a detail not shown here. Equal entries are not always repeated.

Tests used:
recombinant murine CD80 = target: T1, recombinant murine CD80 (murine, UniProt Q00609 38-246); assay: SPR; Biacore T200, 25 °C; HYBRI immobilised on CM5 chip by amine coupling (two ligand densities); analytes in PBS-P, 15.6-2000 nM, 30 µL/min, 90 s injection, 240 s dissociation; steady-state analysis and kinetic fit with 1:1 Langmuir model; settings: both partners purified
T1 construct: CD80, murine (recombinant, R&D systems); source: bought: R&D systems
T1 sequence (looked up): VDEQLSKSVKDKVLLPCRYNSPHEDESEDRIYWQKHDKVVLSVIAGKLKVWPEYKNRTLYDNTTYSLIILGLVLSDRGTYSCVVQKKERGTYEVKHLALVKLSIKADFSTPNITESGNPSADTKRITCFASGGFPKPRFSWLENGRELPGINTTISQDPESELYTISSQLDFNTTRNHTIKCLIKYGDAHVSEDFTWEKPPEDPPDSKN

recombinant murine PD-1 = target: T2, recombinant murine PD-1 (murine, UniProt Q02242 25-169); assay: as above; settings: both partners purified
T2 construct: PD-1, murine (recombinant, R&D systems); source: bought: R&D systems
T2 sequence (looked up): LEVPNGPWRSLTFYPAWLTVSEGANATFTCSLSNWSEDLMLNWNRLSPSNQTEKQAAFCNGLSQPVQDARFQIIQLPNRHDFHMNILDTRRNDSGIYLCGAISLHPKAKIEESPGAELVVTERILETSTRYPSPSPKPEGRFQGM

B1: HYBRI, human fusion recombinant protein with CTLA4 and PD-L2 domains (Fc fusion)
chain 1: [about 120 residues omitted here]
chain 2: LFTVTVPKELYIIEHGSNVTLECNFDTGSHVNLGAITASLQKVENDTSPHRERATLLEEQLPLGKASFHIPQVQVRDEGQYQCIIIYGVAWDYKYLTLKVKASYRKINTHILKVPETDEVELTCQATGYPLAEVSWPNVSVPANTSHSRTPEGLYQVTSVLRLKPPPGRNFSCVFWNTHVRELTLASIDLQSQMEPRTHPT
Question: Which results are given for B1?
Answer: Kd (recombinant murine CD80): 3.72 µM and 3.62 µM; koff (recombinant murine CD80): 0.568 s⁻¹; kon (recombinant murine CD80): 157000 M⁻¹ s⁻¹; Kd (recombinant murine PD-1): 52.9 µM and 49.1 µM; koff (recombinant murine PD-1): 3.19 s⁻¹; kon (recombinant murine PD-1): 63700 M⁻¹ s⁻¹
